Measured values from a collection of fitness landscapes (doi:10.1016/j.celrep.2020.107928).
Over roughly 81,000 sequences, “one-hybrid fitness for binding NBS DNA” has its median near -0.1; the highest 2% begin near 0.36. The list shows a part of the results.

B1: Caulobacter ParB omega fusion; a variant is named by its letters at X, in order, B8GW30 (parent)
chain: MESVVVGEPGMSEGRRGLGRGLSALLGEVDAAPAQAPGEQLGGSREAPIEILQRNPDQPRRTFREEDLEDLSNSIREKGVLQPILVRPSPDTAGEYQIVAGERAWRAAQRAGLKTVPIMVRELDDLAVLEIGIIENVQRADLNVLEEALSYKVLMEKFERTQENIAQTIGKSXSHVANXMRLLXLPDEVQSYLVSGELTAXHARAIAAAADPVALAKQIIEGGLSVRETEALARKAPNLSAGKSKGGRPPRVKDTDTQALESDLSSVLGLDVSIDHRGSTGTLTITYATLEQLDDLCNRLTRGI

Variants of: B1
Assay: one-hybrid fitness for binding NBS DNA (the Noc-binding site; scaled: cognate 1, non-cognate 0); higher = stronger binding
Conditions: with NBS DNA site
Method in brief: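 Pre- and post-selection plasmids were Illumina-sequenced, three replicate libraries were pooled, and any variant with under 10 reads was removed. The libraries were Caulobacter ParB with four specificity codons randomised, selected in E. coli USO through a HIS3 reporter whose site is 19 bp from the promoter. Cells grew 48 hours at 37°C on M9 without histidine, with 0.1 mM IPTG and 5 mM 3-AT. Fitness is the log change in variant-to-wild-type read ratio, rescaled against cognate and non-cognate.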

Variant	one-hybrid fitness for binding NBS DNA
DAGL	≤ 0.2
AVQC	≤ 0.2
PLDT	≤ 0.2
LWQR	≤ 0.2
PPVA	≤ 0.2
PDNC	≤ 0.2
KHLD	≤ 0.2
YFWL	≤ 0.2
IIGK	≤ 0.2
WPSG	≤ 0.2
THTW	≤ 0.2
GWIC	≤ 0.2
WRPS	≤ 0.2
YLHS	≤ 0.2
GASF	≤ 0.2
WEQG	≤ 0.2
NFSN	≤ 0.2
LRPK	≤ 0.2
TFNT	≤ 0.2
QRDD	≤ 0.2
RLSS	0.411
LAGK	≤ 0.2
IGED	≤ 0.2
FYNR	≤ 0.2
PMKS	≤ 0.2

Variant	one-hybrid fitness for binding NBS DNA
MVLL	≤ 0.2
LHYG	≤ 0.2
TPMK	≤ 0.2
ALRM	≤ 0.2
GSKS	≤ 0.2
WSCF	≤ 0.2
PKPP	≤ 0.2
AGNC	≤ 0.2
FEPC	≤ 0.2
TMHR	≤ 0.2
QMHV	≤ 0.2
NTAM	≤ 0.2
TMCT	≤ 0.2
YNCC	≤ 0.2
GEYG	≤ 0.2
QWVK	≤ 0.2
RCAG	≤ 0.2
TSES	≤ 0.2
EMSC	≤ 0.2
QCMP	≤ 0.2
RMCS	0.383
SMKY	≤ 0.2
NTPN	≤ 0.2
QRGR	1.04
RNNL	≤ 0.2

Variant	one-hybrid fitness for binding NBS DNA
PRDM	≤ 0.2
GIMV	≤ 0.2
CKTD	≤ 0.2
IKLR	≤ 0.2
WVGW	≤ 0.2
PYDS	≤ 0.2
IFMR	≤ 0.2
PMLQ	≤ 0.2
QAFR	0.427
TKCW	≤ 0.2
YNVR	≤ 0.2
KWHY	≤ 0.2
NNDN	≤ 0.2
AVQT	≤ 0.2
HCSF	≤ 0.2
AFGR	≤ 0.2
AQYS	≤ 0.2
AEKE	≤ 0.2
STHS	≤ 0.2
QSVQ	0.291
NRLC	≤ 0.2
CLRT	≤ 0.2
KRTF	≤ 0.2
QSPN	≤ 0.2
HKPF	≤ 0.2

Variant	one-hybrid fitness for binding NBS DNA
EQCG	≤ 0.2
HVTA	≤ 0.2
PGSE	≤ 0.2
GLFS	≤ 0.2
IWLT	≤ 0.2
VCYT	≤ 0.2
HKHQ	≤ 0.2
TERL	≤ 0.2
QQAP	≤ 0.2
ISFS	≤ 0.2
KSRV	≤ 0.2
KYAV	≤ 0.2
SRLQ	≤ 0.2
AHHI	≤ 0.2
RNEN	≤ 0.2
TVWS	≤ 0.2
SYMG	≤ 0.2
IHFS	≤ 0.2
VFTF	≤ 0.2
QVPH	≤ 0.2
ELFW	≤ 0.2
ETTL	≤ 0.2
AVHN	≤ 0.2
NRYS	≤ 0.2
HDEP	≤ 0.2

Variant	one-hybrid fitness for binding NBS DNA
PTVE	≤ 0.2
QFKF	≤ 0.2
MMTQ	≤ 0.2
HVHT	≤ 0.2
QCVR	0.48
YRMT	≤ 0.2
WTNC	≤ 0.2
VPIR	≤ 0.2
NMNG	≤ 0.2
SEMG	≤ 0.2
RAQK	≤ 0.2
REGK	≤ 0.2
MDCT	≤ 0.2
PRIA	≤ 0.2
PQIK	≤ 0.2
LADV	≤ 0.2
AFRV	≤ 0.2
TIRG	≤ 0.2
SQKF	≤ 0.2
TDIS	≤ 0.2
KTFN	≤ 0.2
PTNT	≤ 0.2
EWKF	≤ 0.2
CYNR	≤ 0.2
CTYG	≤ 0.2

Variant	one-hybrid fitness for binding NBS DNA
TAAW	≤ 0.2
WTLS	≤ 0.2
QLMK	≤ 0.2
YQHH	≤ 0.2
KAFG	≤ 0.2
RWYW	≤ 0.2
QVAR	0.384
SQNF	≤ 0.2
ALDL	≤ 0.2
DFLA	≤ 0.2
HSTA	≤ 0.2
PNEY	≤ 0.2
GAQD	≤ 0.2
NGMG	≤ 0.2
VFPW	≤ 0.2
HMKV	≤ 0.2
NVRK	≤ 0.2
MVSS	≤ 0.2
NLPC	≤ 0.2
TKRY	≤ 0.2
MEAR	≤ 0.2
GAVA	≤ 0.2
RAFT	0.242
FNVL	≤ 0.2
DTHW	≤ 0.2

Variant	one-hybrid fitness for binding NBS DNA
RDVW	≤ 0.2
QWQG	≤ 0.2
VTHL	≤ 0.2
VDQP	≤ 0.2
PNAT	≤ 0.2
YARC	≤ 0.2
SLNF	≤ 0.2
GYPI	≤ 0.2
HEPR	≤ 0.2
SREW	≤ 0.2
IPLT	≤ 0.2
KTGN	≤ 0.2
KSNT	≤ 0.2
TCAV	≤ 0.2
VQDA	≤ 0.2
VNVN	≤ 0.2
VKSS	≤ 0.2
LQER	≤ 0.2
PLKM	≤ 0.2
KGCV	≤ 0.2
RVSM	≤ 0.2
RMWN	≤ 0.2
HCSG	≤ 0.2
RVLY	≤ 0.2
SEIR	≤ 0.2

Variant	one-hybrid fitness for binding NBS DNA
VMLS	≤ 0.2
AQTF	≤ 0.2
LKQE	≤ 0.2
DVSD	≤ 0.2
YYWG	≤ 0.2
MFPC	≤ 0.2
SLID	≤ 0.2
YVDG	≤ 0.2
LSPR	≤ 0.2
GPTC	≤ 0.2
DVMK	≤ 0.2
MTDC	≤ 0.2
IQTS	≤ 0.2
YTHA	≤ 0.2
KMMS	≤ 0.2
PQVT	≤ 0.2
NTVV	≤ 0.2
QDLF	≤ 0.2
LVRR	≤ 0.2
CVVS	≤ 0.2
